Assay results from the supplement of paper PMC3334620.
Over roughly 33,000 sequences, “E-score (-0.5 to 0.5)” has its median near -0.016; the highest 2% begin near 0.31. The list shows a part of the results.

What follows are sequences tested against Cst6 (UniProt P40535) (assay: PBM E-score (8-mer binding enrichment) (E-score (-0.5 to 0.5)); higher = stronger / more preferred TF binding; most listed sequences are background and not binding sites). Conditions: protein concentration: 200 nM; construct: GST-DNA-binding domain.
Protocol: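 Universal 'all 10-mer' protein binding microarrays (Agilent AMADID 015681) probed with GST-tagged S. cerevisiae TFs (full-length or DBD) made by in vitro transcription/translation (PURExpress), about 100-200 nM. Bound TF was detected with fluorescent anti-GST. Each ungapped 8-mer (which stands for itself and its reverse complement) is scored by the PBM enrichment score (E-score), a modified Wilcoxon-Mann-Whitney statistic from -0.5 to +0.5, computed with the Universal PBM Analysis Suite. Scale: above 0.35 generally sequence-specific binding.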

Sequence | PBM E-score
AGCGGATC | -0.0207
CGGATTGA | 0.0224
AACGTGAC | 0.274
CGGTAGAA | -0.204
ATTGACGG | 0.121
CCGTTAAG | 0.0867
GATCAGCC | -0.212
TGCAATAA | 0.167
ATAGTATC | 0.218
AATGGACC | 0.0576
AGCAAGTA | 0.0438
ACCTGATG | -0.00795
AAAACGCA | 0.0107
ACATTTGC | 0.0837
ACAGAATG | 0.105
ACAACCCG | -0.045
GGCCGCTA | -0.232
AATTCGGG | -0.0904
AAAGCCAG | -0.141
CTGAGGAA | -0.183
CTGCTATC | -0.00541
GGTCTTGA | -0.0828
AGGGTTAA | -0.168
ACACTACT | 0.0264
CGAATCCC | -0.158

Sequence | PBM E-score
AAATTCAA | 0.201
CATCCTAA | 0.0973
TGACTTAA | 0.266
ACACAAGC | -0.0117
ATACCCAT | -0.0474
CTTTGTAC | -0.103
AACACGTG | 0.136
ACTGCCAG | -0.118
GGTCTTAA | -0.198
CTAGGCCA | -0.233
TCTTGAAA | 0.195
CATGACAA | 0.14
GAGAATAC | 0.144
CCGCATGA | 0.189
CCCCGTCC | -0.437
AAGCCGCG | 0.1
CAGCCAGG | -0.147
ACGCCATA | 0.232
CCTCTAGC | -0.078
ACCGTAGA | -0.00945
AACCACCG | -0.0655
ACGCGGAA | 0.167
CTATCGAA | 0.0969
GTACTTCA | 0.27
AGCACTCA | -0.118

Sequence | PBM E-score
GACATTTA | 0.115
CATCATCA | 0.409
AAGGGCGG | -0.153
CGTACACG | 0.118
CATGCAAA | 0.142
CATCTCAG | -0.00804
ACGACACC | 0.036
CAGCTGCG | -0.169
CACCATAG | -0.0555
CATAACAC | 0.121
CCAACCTA | -0.103
GGCCAAAA | 0.191
AGATGCGG | 0.103
GACTTGGA | -0.251
CGACGAAA | 0.12
CGGTCTGC | -0.138
AATTCCAT | 0.148
ATTGTCCC | -0.167
GATAACCC | -0.286
ACCCGGTG | -0.0713
CAAATGGC | 0.0947
ACGATGAA | 0.154
CGTTGGAC | -0.122
AAAGAAGA | -0.0462
ACGGTGGC | -0.0174

Sequence | PBM E-score
CCGGTATC | -0.257
AACGCAGG | -0.251
GACACGTC | 0.202
CTTCAAGA | 0.0345
GATATTAA | 0.201
AGCGAGCG | -0.0518
GATCTTAC | 0.0127
GCTGAAGC | -0.00722
CTCTCTTC | -0.239
AAGCTCAA | -0.049
AACTTTAG | 0.217
AATACACG | 0.0759
CGAGGCGA | 0.0832
AGCCCTCC | -0.323
AGGCGGAC | -0.288
CGACATGC | 0.118
AGTTACGA | 0.209
ATGTATAG | 0.0703
CACCGGCA | -0.178
CTGCGTCA | 0.428
AGTTCGTC | 0.125
ATTGCCTA | -0.141
CGCGTCCC | -0.158
ACTGGGCT | -0.336
AGTAATTG | 0.166

Sequence | PBM E-score
GTTAAGGA | 0.0778
CTTGCCTA | -0.0716
AGACTGAC | 0.0529
GCACGCGC | 0.0129
ACGAGATC | 0.00599
AGGCTTCG | -0.164
ACGCTCCG | -0.119
GATCTTAA | 0.0924
ACCCGATC | -0.0348
AAGTGCAG | -0.149
CACCTAGG | -0.333
CTAGCATC | -0.102
ACAACTGT | -0.0486
CGGGACGC | -0.201
AAGAGCTC | -0.237
AAGAGGGT | -0.156
AGTCAATC | 0.0291
AGTGCCTA | -0.00266
ACTGCGAG | -0.12
AATTTGGG | 0.051
ATCCCAAT | 0.0876
AGAGCGCA | -0.349
AACTCGAC | -0.0524
CTTTCGGA | -0.108
GAGCATTA | -0.0547

Sequence | PBM E-score
AGGAACGC | -0.189
ACGTGCAC | 0.198
GCCTGAGC | -0.0175
ACTACGGG | -0.254
GTGGCAAA | -0.0838
ATGGGGGG | -0.299
CTCTCTAA | -0.138
ATCTCCTA | -0.191
CTGAGCCC | -0.301
ACTACACC | -0.0106
AGGTCTCC | -0.237
CAATAGAA | -0.051
AATTCTTG | 0.185
AGTCGCAC | -0.19
AGTGAGTG | -0.00041
CGATTCCC | -0.121
AGCCGCCC | -0.116
CTATACTC | -0.236
CTCGCGGC | 0.0818
CGTGTAGC | -0.187
CCGAACAG | -0.0529
ACTCTAAC | -0.0916
GATGAATC | 0.0177
ACAAAATA | 0.206
CTTGAACC | -0.0465

Sequence | PBM E-score
AATATATT | 0.355
TCACAGAA | 0.133
GACAGCCA | -0.186
CCATAAAA | 0.123
ACAATATG | 0.179
ACATCACC | 0.417
AACGCCTG | -0.0407
CACTTACG | 0.351
GCCAGTGA | 0.0519
CGCTGAAC | -0.0202
AACGACGC | -0.094
ATCCCTTC | -0.062
ACTCTCCA | -0.101
CGCCCAAA | -0.0345
CAACCCGC | -0.0646
GCGCGCGC | 0.345
GGCCCTAC | -0.408
GACCCCTC | -0.314
GACCACAC | -0.126
CCTGAAAG | 0.0136
AGGCAACG | -0.0115
GATTGGTA | -0.0377
